The values that follow come from article PMC8971425.

Chains of the proteins cited; added tags and fusions are not shown. Residues count along the entry.
UniProt Q9NZQ7, residues 19-290: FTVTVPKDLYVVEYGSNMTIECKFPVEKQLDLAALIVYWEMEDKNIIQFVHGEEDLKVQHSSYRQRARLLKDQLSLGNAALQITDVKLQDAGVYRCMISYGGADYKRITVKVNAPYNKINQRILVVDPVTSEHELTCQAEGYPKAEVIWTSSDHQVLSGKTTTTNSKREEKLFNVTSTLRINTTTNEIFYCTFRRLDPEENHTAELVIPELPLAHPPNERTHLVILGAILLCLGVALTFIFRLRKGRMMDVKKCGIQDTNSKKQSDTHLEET

The target of assay [1] is T1, GST-USP8 (UniProt P40818).
T1 sequence: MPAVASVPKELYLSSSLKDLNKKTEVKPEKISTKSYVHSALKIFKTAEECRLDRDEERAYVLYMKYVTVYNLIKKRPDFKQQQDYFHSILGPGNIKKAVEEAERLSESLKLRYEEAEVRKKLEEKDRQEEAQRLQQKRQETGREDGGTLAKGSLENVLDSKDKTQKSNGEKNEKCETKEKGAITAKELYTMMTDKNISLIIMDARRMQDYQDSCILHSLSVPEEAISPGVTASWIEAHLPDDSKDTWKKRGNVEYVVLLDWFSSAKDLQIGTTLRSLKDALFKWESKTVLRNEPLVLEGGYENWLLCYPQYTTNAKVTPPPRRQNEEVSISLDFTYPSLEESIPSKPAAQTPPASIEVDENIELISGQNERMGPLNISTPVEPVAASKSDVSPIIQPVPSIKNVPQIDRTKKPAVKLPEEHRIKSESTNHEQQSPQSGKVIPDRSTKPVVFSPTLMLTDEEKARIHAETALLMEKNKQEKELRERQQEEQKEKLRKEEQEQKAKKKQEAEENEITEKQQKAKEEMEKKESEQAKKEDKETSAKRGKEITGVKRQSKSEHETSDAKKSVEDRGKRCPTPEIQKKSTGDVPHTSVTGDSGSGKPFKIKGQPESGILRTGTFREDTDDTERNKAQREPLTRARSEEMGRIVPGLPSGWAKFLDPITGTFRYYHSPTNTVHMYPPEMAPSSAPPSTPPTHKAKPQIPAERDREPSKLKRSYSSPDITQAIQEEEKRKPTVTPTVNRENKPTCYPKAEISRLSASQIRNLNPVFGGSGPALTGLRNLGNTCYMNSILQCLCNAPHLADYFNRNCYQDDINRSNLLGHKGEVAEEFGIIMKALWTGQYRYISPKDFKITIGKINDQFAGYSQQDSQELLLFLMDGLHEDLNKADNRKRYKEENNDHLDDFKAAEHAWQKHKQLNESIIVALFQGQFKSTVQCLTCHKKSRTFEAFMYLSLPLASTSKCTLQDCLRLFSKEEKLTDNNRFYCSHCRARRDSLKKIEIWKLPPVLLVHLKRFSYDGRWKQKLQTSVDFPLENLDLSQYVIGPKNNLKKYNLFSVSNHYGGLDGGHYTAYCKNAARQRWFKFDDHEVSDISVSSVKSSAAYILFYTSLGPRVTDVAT
Briefly: pull-down; bacterially purified recombinant GST or GST-USP8 incubated with lysates of 293T cells with ectopic expression of HA-PD-L1; immunoblot; only the target purified.

The target in assay [2] is T2, USP8 expressed in cells, construct not told (Fig. 5i; Supplementary Fig. 2c, 5l–n) (UniProt P40818).
T2 sequence: T1 sequence
Briefly: co-IP; 'in cells'; gradient ectopic expression of the third protein (USP8, PD-L1 or TRAF6) while the interaction of the other two is read; Supplementary Fig. 5l–n, legends not shown.

Assay [3] deals with T3, Flag-USP8 N-terminal domain (aa 1–313) (UniProt P40818).
T3 sequence: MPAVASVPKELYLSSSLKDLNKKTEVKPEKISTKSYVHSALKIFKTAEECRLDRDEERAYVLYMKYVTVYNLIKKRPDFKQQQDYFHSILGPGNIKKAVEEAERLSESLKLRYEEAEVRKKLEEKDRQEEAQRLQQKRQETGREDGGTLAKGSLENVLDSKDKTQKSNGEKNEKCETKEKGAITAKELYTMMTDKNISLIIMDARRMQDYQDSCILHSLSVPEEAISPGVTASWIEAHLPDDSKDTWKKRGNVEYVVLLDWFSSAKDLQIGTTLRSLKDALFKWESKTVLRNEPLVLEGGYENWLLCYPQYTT
Briefly: co-IP; 293T cells co-transfected with the indicated constructs, 10 µM MG132 for 12 h before harvest; lysis in EBC buffer (50 mM Tris pH 7.5, 120 mM NaCl, 0.5% NP-40); bead-conjugated anti-Flag (Fig. 2a, 2f, 3j) or anti-HA (Fig. 5i) overnight at 4 °C; four washes with NETN buffer; immunoblot.

Assay [4] addresses T4, Flag-USP8 middle region (aa 314–714) (UniProt P40818).
T4 sequence: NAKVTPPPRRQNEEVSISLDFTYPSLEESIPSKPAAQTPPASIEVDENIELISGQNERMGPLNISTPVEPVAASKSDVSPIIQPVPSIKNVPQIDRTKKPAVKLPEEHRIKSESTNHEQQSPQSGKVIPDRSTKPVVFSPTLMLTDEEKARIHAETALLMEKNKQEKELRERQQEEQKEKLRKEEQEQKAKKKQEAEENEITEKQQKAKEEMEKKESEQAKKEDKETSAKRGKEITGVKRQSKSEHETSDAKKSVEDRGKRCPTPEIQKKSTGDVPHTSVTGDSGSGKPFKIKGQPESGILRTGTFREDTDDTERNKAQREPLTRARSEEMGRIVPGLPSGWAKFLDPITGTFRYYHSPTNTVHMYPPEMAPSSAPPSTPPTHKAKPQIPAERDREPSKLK
The description is as above.

The target of assay [5] is T5, Flag-USP8 C-terminal domain (aa 715–1118) (UniProt P40818).
T5 sequence: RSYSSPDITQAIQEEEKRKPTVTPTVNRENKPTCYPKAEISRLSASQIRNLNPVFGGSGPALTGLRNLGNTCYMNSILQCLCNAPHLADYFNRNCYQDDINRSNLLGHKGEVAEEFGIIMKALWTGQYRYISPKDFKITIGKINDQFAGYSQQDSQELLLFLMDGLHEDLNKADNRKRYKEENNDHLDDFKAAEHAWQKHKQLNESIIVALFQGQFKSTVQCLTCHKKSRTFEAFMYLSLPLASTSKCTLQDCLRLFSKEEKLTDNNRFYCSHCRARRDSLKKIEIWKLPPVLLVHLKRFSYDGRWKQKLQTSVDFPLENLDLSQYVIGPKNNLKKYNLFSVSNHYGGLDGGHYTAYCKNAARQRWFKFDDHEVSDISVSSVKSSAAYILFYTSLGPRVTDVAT
The description is as above.

The target in assay [6] is T6, Flag-USP8 (WT) (UniProt P40818).
T6 sequence: T1 sequence
The description is as above.

Assay [7] deals with T2, USP8 expressed in cells, construct not told (Fig. 5i; Supplementary Fig. 2c, 5l–n). Briefly: co-IP; 'in cells'; supplementary figures (2c, 3g, 3k, l, 5k) whose legends were not shown; immunoprecipitation as in the methods.

No constants are given. Whether binding was seen depends on the method and setting. In cells and extracts the contact can be indirect. Some binding calls cover weakened binding; strength is not graded here. For some of these results: Tags and fused reporters may be left off the sequences shown.

For HA-PD-L1 (from UniProt Q9NZQ7 19-290), in assay [1], the binding entry is “binds”.
“PD-L1 co-transfected for co-immunoprecipitation (pcDNA3-PD-L1 or pcDNA3-HA-PD-L1, not told for each panel) (from UniProt Q9NZQ7 19-290)”: the binding result in assay [2] is “binds”; in assay [3], “binds”; in assay [4], “no binding”; in assay [5], “binds”; in assay [6], “binds”; in assay [7], “binds”.
